Experimental data: patent US20190248881A1 (PRECITHERA, published 2019)
Blank lines part the entries; values can stand above or below the binder they belong to.

What was measured:
[1] = target: T1, TGF-β3 (UniProt P10600 301-412); assay: cell-based or functional assay
T1 sequence (looked up): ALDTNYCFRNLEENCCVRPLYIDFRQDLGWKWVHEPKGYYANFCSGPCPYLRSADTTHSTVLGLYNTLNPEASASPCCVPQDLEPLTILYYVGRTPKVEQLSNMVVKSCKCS

[2] = target: T2, TGF-β1 (UniProt P01137 in part); assay: cell-based or functional assay
[3] = target: T3, TGF-β2 (UniProt P61812 303-414); assay: cell-based or functional assay
T3 sequence (looked up): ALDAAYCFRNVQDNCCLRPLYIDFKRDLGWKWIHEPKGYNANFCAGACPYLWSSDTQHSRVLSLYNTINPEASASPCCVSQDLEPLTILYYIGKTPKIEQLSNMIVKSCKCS

[4] = target: T1, TGF-β3; assay: cell-based or functional assay; remark: listed apart in the source
[5] = target: T2, TGF-β1; assay: cell-based or functional assay; remark: listed apart in the source
T2 sequence (P01137 279-390 limits assumed): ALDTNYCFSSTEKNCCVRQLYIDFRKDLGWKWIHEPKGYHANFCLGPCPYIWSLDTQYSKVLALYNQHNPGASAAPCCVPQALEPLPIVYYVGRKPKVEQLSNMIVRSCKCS

[6] = target: T3, TGF-β2; assay: cell-based or functional assay; remark: listed apart in the source
[7] = target: T3, TGF-β2; assay: SPR (adjusted sensorgram), TGF-β2 surface, dilution series of PCT-0015 SEC fractions from column #1
[8] = target: T3, TGF-β2; assay: SPR; SEC fraction 15 of PCT-0015 over TGF-β2 surface
[9] = target: T1, TGF-β3; assay: SPR (adjusted sensorgram), TGF-β3 surface, dilution series of PCT-0015 SEC fractions from column #1
[10] = target: T1, TGF-β3; assay: SPR; SEC fraction 15 of PCT-0015 over TGF-β3 surface
[11] = target: T2, TGF-β1; assay: SPR; SEC fraction 14 of PCT-0015 over TGF-β1 surface
[12] = target: T3, TGF-β2; assay: SPR; SEC fraction 14 of PCT-0015 over TGF-β2 surface
[13] = target: T1, TGF-β3; assay: SPR; SEC fraction 14 of PCT-0015 over TGF-β3 surface
[14] = target: T2, TGF-β1; assay: SPR; SEC fraction 15 of PCT-0015 over TGF-β1 surface
[15] = target: T2, TGF-β1; assay: SPR; purified peak fraction, cycle 4, TGF-B1
[16] = target: T2, TGF-β1; assay: SPR; purified peak fraction, cycle 8, TGF-B1
[17] = target: T1, TGF-β3; assay: SPR; purified peak fraction, cycle 6, TGF-B3
[18] = target: T1, TGF-β3; assay: SPR; purified peak fraction, cycle 4, TGF-B3
[19] = target: T1, TGF-β3; assay: cell-based or functional assay; remark: listed apart in the source
[20] = target: T2, TGF-β1; assay: SPR; average of cycles 4, 6, 8, TGF-B1
[21] = target: T3, TGF-β2; assay: SPR; purified peak fraction, cycle 4, TGF-B2
[22] = target: T2, TGF-β1; assay: SPR; purified peak fraction, cycle 6, TGF-B1
[23] = target: T1, TGF-β3; assay: SPR; purified peak fraction, cycle 8, TGF-B3
[24] = target: T1, TGF-β3; assay: SPR; average of cycles 4, 6, 8, TGF-B3
[25] = target: T2, TGF-β1; assay: cell-based or functional assay; remark: listed apart in the source
[26] = target: T3, TGF-β2; assay: SPR; purified peak fraction, cycle 8, TGF-B2
[27] = target: T3, TGF-β2; assay: SPR; purified peak fraction, cycle 6, TGF-B2
[28] = target: T3, TGF-β2; assay: SPR; average of cycles 4, 6, 8, TGF-B2

EC50 for neutralization of TGF-β [1]: 8 picomol/L
EC50 for neutralization of TGF-β [2]: 8.8 picomol/L
EC50 for neutralization of TGF-β [3]: 55.5 picomol/L
EC50, TGF-β isoform neutralization [4]: 0.0105 nM
Fold 0020/0016 (EC50 ratio against PCT-0016NT) [4]: 3.3 fold
EC50, TGF-β isoform neutralization [5]: 0.0171 nM
Fold 0020/0016 (EC50 ratio against PCT-0016NT) [5]: 2.6 fold
EC50, TGF-β isoform neutralization [6]: 0.071 nM
Fold 0020/0016 (EC50 ratio against PCT-0016NT) [6]: 17.4 fold
B1: PCT-0020 (Fc fusion)
chain: NGAVKFPQLCKFCDVRFSTCDNQKSCMSNCSITSICEKPQEVCVAVWRKNDENITLETVCHDPKLPYHDFILEDAASPKCIMKEKKKPGETFFMCSCSSDECNDNIIFSEEYNTSNPDGLGPVESSPGHGLDTAAAGPEPSTRCELSPINASHPVQALMESFTVLSGCASHGTTGLPREVHVLNLRSTDQGPGQRQREVTLHLNPIASVHTHHKPIVFLLNSPQPLVWRLKTERLAAGVPRLFLVSEGSVVQFPSGNFSLTAETEERNFPQENEHLLRWAQKEYGAVTSFTELKIARNIYIKVGEDQVFPPTCNIGKNFLSLNYLAEYLQPKAAEGCVLPSQPHEKEVHIIELITPSSNPYSAFQVDIIVDIRPAQEDPEVVKNLVLILKSKKSVNWVIKSFDVKGNLKVIAPNSIGFGKESERSMTMTKLVRDDIPSTQENLMKWALDAGYRPVTSYTMAPVANRFHLRLENNEEMRDEEVHTIPPELRILLDPDKLPQLCKFCDVRFSTCDNQKSCMSNCSITSICEKPQEVCVAVWRKNDENITLETVCHDPKLPYHDFILEDAASPKCIMKEKKKPGETFFMCSCSSDECNDNIIFSEEYNTSNPDLLLVIFQVTGISLLPPLGGGGS[in this place human IgG1 Fc]DDDDDDDDDD

Kd [7]: 0.805 nM
Kd [8]: 0.805 nM
koff [8]: 0.000512 s⁻¹
kon [8]: 636000 M⁻¹ s⁻¹
Kd [9]: 0.638 nM
Kd [10]: 0.638 nM
koff [10]: 0.000234 s⁻¹
kon [10]: 366000 M⁻¹ s⁻¹
Kd [11]: 1.92 nM
koff [11]: 0.000551 s⁻¹
kon [11]: 288000 M⁻¹ s⁻¹
Kd [12]: 1.9 nM
koff [12]: 0.000724 s⁻¹
kon [12]: 381000 M⁻¹ s⁻¹
Kd [13]: 1.31 nM
koff [13]: 0.000441 s⁻¹
kon [13]: 338000 M⁻¹ s⁻¹
Kd [14]: 1.08 nM
koff [14]: 0.000453 s⁻¹
kon [14]: 420000 M⁻¹ s⁻¹
B2: PCT-0015 HMW SEC fractions (fractions 14 and 15) (Fc fusion)
chain: NGAVKFPQLCKFCDVRFSTCDNQKSCMSNCSITSICEKPQEVCVAVWRKNDENITLETVCHDPKLPYHDFILEDAASPKCIMKEKKKPGETFFMCSCSSDECNDNIIFSEEYNTSNPDGLGPVESSPGHGLDTAAAGPEPSTRCELSPINASHPVQALMESFTVLSGCASHGTTGLPREVHVLNLRSTDQGPGQRQREVTLHLNPIASVHTHHKPIVFLLNSPQPLVWRLKTERLAAGVPRLFLVSEGSVVQFPSGNFSLTAETEERNFPQENEHLLRWAQKEYGAVTSFTELKIARNIYIKVGEDQVFPPTCNIGKNFLSLNYLAEYLQPKAAEGCVLPSQPHEKEVHIIELITPSSNPYSAFQVDIIVDIRPAQEDPEVVKNLVLILKSKKSVNWVIKSFDVKGNLKVIAPNSIGFGKESERSMTMTKLVRDDIPSTQENLMKWALDAGYRPVTSYTMAPVANRFHLRLENNEEMRDEEVHTIPPELRILLDPDKLPQLCKFCDVRFSTCDNQKSCMSNCSITSICEKPQEVCVAVWRKNDENITLETVCHDPKLPYHDFILEDAASPKCIMKEKKKPGETFFMCSCSSDECNDNIIFSEEYNTSNPDTGGG[in this place human IgG1 Fc]DDDDDDDDDD
notes: High molecular weight bands (>=240 kDa, non-reducing) of Protein A purified PCT-0015 after Superose 6 SEC; also called 1F14; 1F15

Kd [15]: 0.0496 nM
koff [15]: 2.58e-05 s⁻¹
kon [15]: 521000 M⁻¹ s⁻¹
Kd [16]: 0.0423 nM
koff [16]: 2.45e-05 s⁻¹
kon [16]: 580000 M⁻¹ s⁻¹
Kd [17]: 0.0627 nM
koff [17]: 2.64e-05 s⁻¹
kon [17]: 420000 M⁻¹ s⁻¹
Kd [18]: 0.0714 nM
koff [18]: 2.93e-05 s⁻¹
kon [18]: 410000 M⁻¹ s⁻¹
IC50 (read off the curve) [19]: ~0.003 nM
Kd [20]: 0.041 nM
koff [20]: 2.26e-05 s⁻¹
kon [20]: 553000 M⁻¹ s⁻¹
Kd [21]: 0.0385 nM
koff [21]: 1.59e-05 s⁻¹
kon [21]: 414000 M⁻¹ s⁻¹
EC50, TGF-β isoform neutralization [4]: 0.0032 nM
EC50, TGF-β isoform neutralization [5]: 0.0065 nM
EC50, TGF-β isoform neutralization [6]: 0.0041 nM
Kd [22]: 0.0313 nM
koff [22]: 1.75e-05 s⁻¹
kon [22]: 559000 M⁻¹ s⁻¹
Kd [23]: 0.0685 nM
koff [23]: 2.99e-05 s⁻¹
kon [23]: 437000 M⁻¹ s⁻¹
Kd [24]: 0.0675 nM
koff [24]: 2.85e-05 s⁻¹
kon [24]: 422000 M⁻¹ s⁻¹
IC50 (read off the curve) [25]: ~0.003 nM
Kd [26]: 0.028 nM
koff [26]: 1.71e-05 s⁻¹
kon [26]: 610000 M⁻¹ s⁻¹
Kd [27]: 0.0172 nM
koff [27]: 1.08e-05 s⁻¹
kon [27]: 624000 M⁻¹ s⁻¹
Kd [28]: 0.0279 nM
koff [28]: 1.46e-05 s⁻¹
kon [28]: 549000 M⁻¹ s⁻¹
B3: PCT-0016NT (Fc fusion)
chain: [in this place human IgG1 Fc]GGGGSGGGGSGGGGSGNGAVKFPQLCKFCDVRFSTCDNQKSCMSNCSITSICEKPQEVCVAVWRKNDENITLETVCHDPKLPYHDFILEDAASPKCIMKEKKKPGETFFMCSCSSDECNDNIIFSEEYNTSNPDGLGPVESSPGHGLDTAAAGPEPSTRCELSPINASHPVQALMESFTVLSGCASHGTTGLPREVHVLNLRSTDQGPGQRQREVTLHLNPIASVHTHHKPIVFLLNSPQPLVWRLKTERLAAGVPRLFLVSEGSVVQFPSGNFSLTAETEERNFPQENEHLLRWAQKEYGAVTSFTELKIARNIYIKVGEDQVFPPTCNIGKNFLSLNYLAEYLQPKAAEGCVLPSQPHEKEVHIIELITPSSNPYSAFQVDIIVDIRPAQEDPEVVKNLVLILKSKKSVNWVIKSFDVKGNLKVIAPNSIGFGKESERSMTMTKLVRDDIPSTQENLMKWALDAGYRPVTSYTMAPVANRFHLRLENNEEMRDEEVHTIPPELRILLDPDKLPQLCKFCDVRFSTCDNQKSCMSNCSITSICEKPQEVCVAVWRKNDENITLETVCHDPKLPYHDFILEDAASPKCIMKEKKKPGETFFMCSCSSDECNDNIIFSEEYNTSNPD

EC50 for neutralization of TGF-β [1]: 4.2 picomol/L
EC50 for neutralization of TGF-β [2]: 1.9 picomol/L
EC50 for neutralization of TGF-β [3]: 105 picomol/L
B4: PCT-0026 (Fc fusion)
chain: ADNGAVKFPQLCKFCDVRFSTCDNQKSCMSNCSITSICEKPQEVCVAVWRKNDENITLETVCHDPKLPYHDFILEDAASPKCIMKEKKKPGETFFMCSCSSDECNDNIIFSEEYNTSNPDGLGPVESSPGHGLDTAAAGPEPGALCELSPVSASHPVQALMESFTVLSGCASRGTTGLPQEVHVLNLRTAGQGPGQLQREVTLHLNPISSVHIHHKSVVFLLNSPHPLVWHLKTERLATGVSRLFLVSEGSVVQFSSANFSLTAETEERNFPHGNEHLLNWARKEYGAVTSFTELKIARNIYIKVGEDQVFPPKCNIGKNFLSLNYLAEYLQPKAAEGCVMSSQPQNEEVHIIELITPNSNPYSAFQVDITIDIRPSQEDLEVVKNLILILKSKKSVNWVIKSFDVKGSLKIIAPNSIGFGKESERSMTMTKSIRDDIPSTQGNLVKWALDNGYSPITSYTMAPVANRFHLRLENNEEMGDEEVHTIPPELRILLDPGALPQLCKFCDVRFSTCDNQKSCMSNCSITSICEKPQEVCVAVWRKNDENITLETVCHDPKLPYHDFILEDAASPKCIMKEKKKPGETFFMCSCSSDECNDNIIFSEEYNTSNPDLLLVIFQVTGISLLPPLGGGGS[in this place human IgG1 Fc]DDDDDDDDDD
